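48-hour exposure; five concentrations; linearly interpolated endpoints. At the GI50, growth is halved.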 A number of entries come with more than one value. The other results are left out here. The source may hold further records. For some of these results: The records of an entry repeat one measurement (runs, samples, wells, individuals or studies). Brackets tell where a record comes from. A, B and so on number the origins entry by entry.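 TGI marks complete inhibition of growth.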 For some of these results: A record mostly stands for its own series of concentrations, not given here; some values may only mark the edge of a range.
Assays:
Assay in all cases: NCI tumour cell line growth inhibition, 48 h
[1] = tested on: OVCAR-4 ovarian
[2] = tested on: NCI/ADR-RES ovarian
[3] = tested on: SNB-75 CNS
[4] = tested on: SK-MEL-5 melanoma
[5] = tested on: MOLT-4 leukemia
[6] = tested on: OVCAR-8 ovarian
[7] = tested on: HL-60(TB) leukemia
[8] = tested on: IGROV1 ovarian
[9] = tested on: EKVX NSCLC
[10] = tested on: CCRF-CEM leukemia
[11] = tested on: HS 578T breast
[12] = tested on: SF-295 CNS
[13] = tested on: U251 CNS
[14] = tested on: KM20L2 colon
[15] = tested on: OVCAR-5 ovarian
[16] = tested on: HT29 colon
[17] = tested on: UACC-62 melanoma
[18] = tested on: UACC-257 melanoma

C=CCN1C(=O)/C(=C/c2ccc(OC)cc2)N=C1SC1OC(COC(C)=O)C(OC(C)=O)C(OC(C)=O)C1OC(C)=O (configuration not stated)
GI50 [1]: 5.71 µM [sample A, mean of 2 tests] and > 100 µM [sample B, 1 test]

Clc1ccc(N/N=C(\c2ccccc2)c2ccccn2)nc1
TGI [2]: 64.3 nM [sample A] and 7.15 µM [sample B] | TGI [3]: 3.99 µM [sample A] and > 51.9 µM [sample B] | TGI [4]: 11.9 µM [sample A] and 1.13 µM [sample B] | TGI [5]: 4.41 µM [sample A] and > 66.5 µM [sample B] | TGI [6]: 22 nM [sample A] and > 100 µM [sample B] | TGI [7]: 29.3 µM [sample A] and 982 nM [sample B] | TGI [8]: 2.45 µM [sample A] and > 41.3 µM [sample B] | TGI [9]: 5 µM [sample A] and > 100 µM [sample B] | TGI [10]: 3.64 µM [sample A] and > 37 µM [sample B] | TGI [11]: 4.29 µM [sample A] and > 100 µM [sample B]

COc1cccc2c1C(=O)c1c(O)c3c(c(O)c1C2=O)C[C@@](O)(C(C)=O)C[C@@H]3OC1CC(O)C(O)C(C)O1 (some centres not stated)
TGI [2]: 0.302 nM and 22.2 µM | TGI [12]: 0.411 nM, 7.9 µM, 5.41 µM | TGI [3]: 4.8 nM, 9.8 µM, 9.02 µM | TGI [13]: 0.454 nM, 8.31 µM, 6.31 µM | TGI [14]: 0.562 nM, 8.73 µM, 33 µM | TGI [15]: 0.513 nM and 7.34 µM | TGI [6]: 0.407 nM, 9.62 µM, 19 µM | TGI [16]: 0.802 nM and 16.4 µM | TGI [17]: 8.82 nM, 5.78 µM, 4.39 µM | TGI [8]: 4.73 nM and 26.2 µM | TGI [18]: 0.906 nM, 8.81 µM, 18.4 µM

From PubChem BioAssay (NCI)
